Results from PubChem BioAssay AID624417 (National Center for Advancing Translational Sciences (NCATS), 2012).
Screen size: about 410,000 compounds; about 6,400 (1.6%) were called active. The shares of active, inactive and inconclusive entries below differ from those in the screen. Calls come from the whole dose curve; as a rule, active = well fitted inhibition curve with a large enough effect; inconclusive = small, poorly fitted or top-dose-only effect; inactive = no such curve, though single readings can be large or run the other way. Potencies of inconclusive entries are left out as doubtful fits.

Each compound was assayed against Glucagon-like peptide 1 receptor (Homo sapiens) (UniProt P43220) (assay: qHTS of GLP-1 Receptor Inverse Agonists (Inhibition Mode)). Details: HEK293 GLP-1R CRE-luciferase, luminescence, 24 h, GLP-1R form is constitutively active; activity change, negative = inhibition: at 38.3 µM (top of the series) unless noted.
Sequence of UniProt P43220 (P43220 whole entry, looked up): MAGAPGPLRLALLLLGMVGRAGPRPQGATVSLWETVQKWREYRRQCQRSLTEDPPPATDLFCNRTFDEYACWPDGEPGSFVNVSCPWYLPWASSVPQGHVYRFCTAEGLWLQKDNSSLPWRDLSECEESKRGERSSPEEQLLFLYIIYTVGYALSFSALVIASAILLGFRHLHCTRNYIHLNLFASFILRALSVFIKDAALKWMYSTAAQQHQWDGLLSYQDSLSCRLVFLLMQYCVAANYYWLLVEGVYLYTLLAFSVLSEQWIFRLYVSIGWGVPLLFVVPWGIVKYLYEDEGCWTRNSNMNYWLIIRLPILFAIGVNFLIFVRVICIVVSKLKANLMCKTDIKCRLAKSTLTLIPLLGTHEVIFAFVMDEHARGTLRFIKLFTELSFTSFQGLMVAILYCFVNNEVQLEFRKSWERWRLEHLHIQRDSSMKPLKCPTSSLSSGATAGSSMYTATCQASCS
Summary of the method: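 Stable HEK293 clone (constitutively active GLP-1R + cAMP-response luciferase); 200 cells/uL plated, 12 h pre-culture, compound 24 hr, 37 deg C/5% CO2; detection reagent 12 min RT; luminescence.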
% is set by controls: 0 for no effect and ±100 for the full control effect; potency is the fitted concentration of half-maximal effect; tags give direction and shape of the fitted curve.
Note: nearly all actives have a fitted effect of over 55% in size.

Row | Compound | Potency | activity change, negative = inhibition
1 | CCN1CCN(C(=O)c2ccc3c(c2)N(Cc2ccccc2F)C(=O)c2ccccc2S3(=O)=O)CC1 | inactive | –
2 | CCSc1ccc(-c2cc(NC=O)c3ncc(-c4cccc(C(=O)NCCN(C)C)c4)n3c2)cc1 | inconclusive [inhibitor, single point] | –
3 | Cc1ccc(-n2nnnc2-c2cnn(-c3cccc(F)c3)c2C(F)(F)F)cc1 | inconclusive [inhibitor, single point] | –
4 | CN(C)c1nccc(N(Cc2ccccc2)Cc2ccccc2)c1C#N | active: 11.2 µM | –
5 | CCOc1ccc(-c2cc(CCCC(=O)NCCc3ccc(OCC)c(OCC)c3)no2)cc1 | – | inactive: 1.05%
6 | Cc1ccc(S(=O)(=O)Nc2ccc(NC(=O)c3c(F)c(F)c(F)c(F)c3F)cc2)cc1 | inconclusive [inhibitor, partial curve] | –
7 | C[C@@H](NC(=O)CN(c1ccccc1)S(=O)(=O)N(C)C)c1ccccc1 | – | inactive: -18.3%
8 | COc1ccc(NC(=O)CSc2nc(C)cc(C)c2C(=O)Nc2cccc(C)c2)cc1 | inconclusive [inhibitor, single point] | –
9 | CC(C)CCOP(=O)(c1ccc(N(C)C)cc1)C(Nc1ccccc1)c1ccc(N(C)C)cc1 (stereo not given) | inconclusive [inhibitor, partial curve, poor fit] | –
10 | COc1ccc2cc3cc(C(=O)Nc4ccccc4C)oc3nc2c1 | – | inactive: 0.0227%
11 | Cc1cccc(N2CCN(C(=O)C3CCN(S(=O)(=O)c4cccc5nsnc45)CC3)CC2C)c1 (stereo not given) | inconclusive [inhibitor, single point] | –
12 | CCCCN(CC)CCNC(=O)c1cc2c(=O)n(C)c3ccccc3c2s1 | inconclusive [inhibitor, partial curve, poor fit] | –
13 | CCO[C@@H]1OC(C(=O)N2CCCCCCC2)=C[C@H](c2ccc3c(c2)OCO3)[C@H]1CCCO | inconclusive [inhibitor, single point] | –
14 | c1cncc(-c2nnc(-c3cccnc3)nn2)c1 | inconclusive [inhibitor, single point] | –
15 | CCOC(=O)N1CCN(S(=O)(=O)c2ccc(C(=O)N(CCN(C)C)c3nc4c(C)cccc4s3)cc2)CC1 | inconclusive [inhibitor, single point] | –
16 | O=C(c1ccccc1Cl)N1CCN(CCc2ccccn2)CC1 | – | inactive: -10.9%
17 | Cc1ccc([N+](=O)[O-])cc1N(CC(=O)NC1CCCC1)S(C)(=O)=O | – | inactive: -5.93%
18 | COC(=O)c1ccc(NC(=O)CN2CCN(c3ccccc3)CC2)cc1 | – | inactive: 1.37%
19 | CC(=O)n1cc(N(C(=O)CCl)c2ccc([N+](=O)[O-])cc2)c2ccccc21 | inconclusive [inhibitor, single point] | –
20 | CN1CCN(CC(=O)Nc2ccc([N+](=O)[O-])cc2Br)CC1 | inconclusive [inhibitor, partial curve, poor fit] | –
21 | Cn1nc(C(F)(F)F)c(-c2ccccc2)c1NC(=O)c1cccnc1 | inconclusive [inhibitor, single point] | –
22 | CC(C)NC(=O)CSc1nc(Cc2ccccc2)nc2ccccc12 | inconclusive [inhibitor, single point] | –

Row | Compound | Potency | activity change, negative = inhibition
23 | COc1cc(OC)cc(C(=O)Nc2nc(-c3nnn(-c4ccc(F)c(Cl)c4)c3C)ns2)c1 | – | inactive: -13.2%
24 | Cc1cc(Cl)cc(Cl)c1OCCCCN(C)C | inconclusive [inhibitor, partial curve, poor fit] | –
25 | O=C(c1ccc(F)cc1)C1CCN(C(=O)c2ccc(Cl)cc2)CC1 | inconclusive [inhibitor, single point] | –
26 | COc1ccc(C2(CCN)CC(C)N(C)CC2C)cc1 (stereo not given) | inconclusive [inhibitor, partial curve] | –
27 | CC1Sc2ccc(S(=O)(=O)NCCc3ccc(Cl)cc3)cc2NC1=O (stereo not given) | inconclusive [inhibitor, single point] | –
28 | CCc1ccc(N(CC(=O)NC(C)(C)CC)C(=O)CCC(=O)Nc2nccs2)cc1 | inconclusive [inhibitor, single point] | –
29 | O=C(Nc1ccccc1C(=O)O)c1cccc(C(=O)Nc2ccccc2C(=O)O)c1 | – | inactive: 141%
30 | COC(=O)c1c(NC(=O)CCS(=O)(=O)c2ccccc2)sc2c1CCN(C)C2 | – | inactive: -4.96%
31 | CC(=O)Nc1ccc(S(=O)(=O)NC(C)CCc2ccccc2)cc1 (stereo not given) | inconclusive [inhibitor, single point] | –
32 | CN=C(Nc1ccc(Cl)cc1)c1cccc(C(F)(F)F)c1 | inconclusive [inhibitor, partial curve, poor fit] | –
33 | O=S(=O)(Nc1ccccc1)c1cccc2nsnc12 | – | inactive: 17.2%
34 | COc1ccc(Br)cc1CN1C(=O)NC2(CCCCCC2)C1=O | inconclusive [inhibitor, single point] | –
35 | CN=C1S/C(=C\c2cn(CC(=O)OC)c3ccccc23)C(=O)N1C | – | inactive: 23.5%
36 | Cc1nc2ccccc2c(=O)n1/N=C/c1ccccc1O | inconclusive [inhibitor, single point] | –
37 | CC(C)c1ccc(Nc2nc(Cl)nc(NCc3ccco3)n2)cc1 | inconclusive [inhibitor, single point] | –
38 | CC(C)(C)NC(=O)Nc1ccc(F)c(Cl)c1 | inconclusive [inhibitor, single point] | –
39 | COc1ccc(NC(=O)N(C)C[C@H]2Oc3c(NC(=O)c4nc5ccccc5s4)cccc3C(=O)N([C@@H](C)CO)C[C@H]2C)cc1 | inconclusive [inhibitor, single point] | –
40 | CCCCN(C(=O)Cc1ccc(S(=O)(=O)N2CCOCC2)s1)c1ccccc1 | inconclusive [inhibitor, partial curve, poor fit] | –
41 | CN(C(=O)c1oc(=O)c2ccccc2c1-c1ccccc1)c1cccc(Cl)c1 | inconclusive [inhibitor, single point] | –
42 | C#CCOCCOCCOCCNc1nc(N2CCN(C(=O)CCCCCCCCCCNC(=O)Cn3cc(C[C@@H](C)O)nn3)CC2)nc(N2CCN(C(=O)CCCCCCCCCCNC(=O)[C@H](CCCN=C(N)N)n3cc(C[C@@H](C)CC)nn3)CC2)n1 | inconclusive [inhibitor, single point] | –
43 | CCCn1c(=O)c2sccc2n2c(CCCC(=O)Nc3ccccc3F)nnc12 | – | inactive: 13.1%
44 | N/C(CCS(=O)(=O)c1ccc(Cl)cc1)=N\OC(=O)c1ccccc1C(F)(F)F | inconclusive [inhibitor, single point] | –

Row | Compound | Potency | activity change, negative = inhibition
45 | COc1ncc(-c2ccc(N3C(c4ccsc4)=Cc4ccccc4C3CC(C)=O)cc2)cn1 (stereo not given) | inconclusive [inhibitor, partial curve] | –
46 | COc1cccc(-c2cnc(C(O)c3ccc(Cl)c(Cl)c3)[nH]2)c1 (stereo not given) | inconclusive [inhibitor, single point] | –
47 | O=C(N/N=C/c1cccc2ccccc12)c1cccs1 | – | inactive: 18.2%
48 | O=S(=O)(c1ccc(NC(=S)NCc2ccc(F)cc2)cc1)N1CCOCC1 | inconclusive [inhibitor, single point] | –
49 | COc1ccc(C(=O)/C=C/c2cc(OC)c(O)c(OC)c2)c(F)c1 | inconclusive [inhibitor, single point] | –
50 | Cc1ccccc1C(=O)c1cccn1CC(=O)NCCN1CCN(c2cccc(C)c2C)CC1 | inconclusive [inhibitor, single point] | –
51 | CCN1CCN(CCCNC(=O)c2ccc3c(c2)sc2nc(-c4ccc(C)cc4)cn23)CC1 | inconclusive [inhibitor, partial curve, poor fit] | –
52 | O=C(OCc1ccccc1)N1CCC2CC1c1ccc(Cl)cc12 (stereo not given) | inconclusive [inhibitor, single point] | –
53 | COc1ccc(-c2cc(C)no2)cc1S(=O)(=O)N1CC(C)Oc2ccccc21 (stereo not given) | inconclusive [inhibitor, single point] | –
54 | CCOC(=O)C1=C(C)NC2=C(C(=O)c3ccccc32)C1c1ccc([N+](=O)[O-])o1 (stereo not given) | – | inactive: -17.1%
55 | C/C(=N\NC(=S)NCc1ccccc1)c1ccc(Cl)s1 | – | inactive: -5.88%
56 | CC(SCc1ccccc1)C(=O)Nc1ccccc1-c1ccccc1 (stereo not given) | inconclusive [inhibitor, single point] | –
57 | O=C(NCC1CCCO1)c1cc2c([nH]c3ccccc32)c(-c2ccc(F)cc2)n1 (stereo not given) | inconclusive [inhibitor, single point] | –
58 | CCc1noc(C)c1C(=O)N1CC(C)SC1=Nc1ccc(Cl)cc1 (stereo not given) | inconclusive [inhibitor, single point] | –
59 | O=C(NCc1ccco1)c1ccc(CS(=O)(=O)c2cccc(C(F)(F)F)c2)o1 | inconclusive [inhibitor, single point] | –
60 | O=C(CSc1nc(O)c(C/C=C/c2ccccc2)c(=O)[nH]1)Nc1cccc(F)c1 | – | inactive: 10.1%
61 | Cc1ccccc1C(=O)NC1CCN(C(=O)NCc2ccccc2)CC1 | – | inactive: 7.1%
62 | Cc1cccc(CN(CC(=O)N/N=C/c2cccs2)S(=O)(=O)c2ccc(Cl)cc2)c1 | active: 8.91 µM | –
63 | O=C(NCc1ccc(Cl)cc1)C1CCN(S(=O)(=O)c2ccc3c(c2)CCCN3C(=O)C2CCC2)CC1 | inconclusive [inhibitor, single point] | –
64 | CCCCC[C@@H]1C=C(C(=O)OCC)[C@H](c2ccccc2)N1S(=O)(=O)c1ccc(C)cc1 | inconclusive [inhibitor, single point] | –
65 | Cc1ccc(-c2nn(C)c(=O)c3ccccc23)cc1CO | – | inactive: 55.7%
